Some of the results follow.
Key:
[1] = test system: HSkMC (human skeletal muscle cells); experiment: cytotoxicity call (relative viability < 0.9); conditions: 10 µM
[2] = test system: HepG2; experiment: cytotoxicity call (relative viability < 0.9); conditions: 10 µM
[3] = test system: S. aureus RN4220; experiment: growth inhibition call (relative growth <= 0.2); conditions: 50 µM

C[C@H](CO)N1C[C@H](C)[C@H](CN(C)S(=O)(=O)c2ccc(C#N)cc2)Oc2ncc(-c3cccc(F)c3)cc2C1=O
inactive: cytotoxicity call [1] | cytotoxicity call [2] | growth inhibition call [3]

COc1ccc(NC(=O)N(C)C[C@H]2Oc3c(NC(=O)c4ccc(-c5nccs5)cc4)cccc3C(=O)N([C@@H](C)CO)C[C@@H]2C)cc1
inactive: cytotoxicity call [1] | cytotoxicity call [2] | growth inhibition call [3]

C[C@@H]1CN([C@@H](C)CO)S(=O)(=O)c2ccc(C#Cc3ccccn3)cc2O[C@H]1CN(C)Cc1ccccc1
inactive: cytotoxicity call [1] | cytotoxicity call [2] | growth inhibition call [3]

CCC(C=CC(C)C1CCC2C3CC=C4CC(O)CCC4(C)C3CCC12C)C(C)C (stereo not given)
inactive: cytotoxicity call [1] | cytotoxicity call [2] | growth inhibition call [3]

Cc1noc(C)c1NC(=O)Nc1ccc2c(c1)CC(=O)N([C@@H](C)CO)C[C@H](C)[C@H](CN(C)C(=O)Nc1ccc(C(F)(F)F)cc1)O2
inactive: cytotoxicity call [1] | cytotoxicity call [2] | growth inhibition call [3]

CC#CCCC(=O)O
inactive: cytotoxicity call [1] | cytotoxicity call [2] | growth inhibition call [3]

C[S+](CC[C@H](N)C(=O)O)C[C@H]1O[C@@H](n2cnc3c(N)ncnc32)[C@H](O)[C@@H]1O (stereo not given in full)
inactive: cytotoxicity call [1] | cytotoxicity call [2] | growth inhibition call [3]

C[C@H]1CN([C@@H](C)CO)S(=O)(=O)c2ccc(-c3ccc(C(=O)N(C)C)cc3)cc2O[C@H]1CN(C)C(=O)Cc1ccccn1
inactive: cytotoxicity call [1] | cytotoxicity call [2] | growth inhibition call [3]

CN1CCN(C(=O)C[C@H]2CC[C@H]3[C@@H](COC[C@@H](O)CN3C(=O)C3CCOCC3)O2)CC1
inactive: cytotoxicity call [1] | cytotoxicity call [2] | growth inhibition call [3]

CCCCCCCCNC[C@@H](O)[C@H](O)[C@@H](O)[C@@H](O)CO
inactive: cytotoxicity call [1] | cytotoxicity call [2] | growth inhibition call [3]

— the antibiotic and cytotoxicity screens of Wong et al. (2023)
